# Experimental data taken from the supplement of paper PMC8728848.
# This is one part of the list.
# B1: PX14367A-bth-493-35-493 (Bacteroides thetaiotaomicron) (protein)
# chain: VSSDQVAVAGNAERLFNGAWYNLFEYGTTYANIGYRALQCQDDMMASDVVSRPKYGFNSSYQFNDVAIPSDGRTSFAWYLIYKTIDNCNTAISIKGDSEELRQAQGQALALRAFCYLHLVQHYQFTYLKDKDAPCVPIYTEPTTSGTKPKGKSTVAQVYQQIFDDLNLAQDYLTNYVRKGDGQKFKPNTDVVNGLMARAYLLTGQWGEAAKAAEAARKGYSLMTTTAEYEGFNNISNKEWIWGSPQTLSQSDASYNFYYLDATYVGAYSSFMADPHLMDTFVKGDIRLPLFQWMREGYLGYKKFHMRSDDTADLVLMRSAEMYLIEAEAKVRDGVALDQAVAPLNTLRTARGVGNYDVTGKTKEQVIDEILMERRRELWGEGFGITDVLRNQKAVERMALSEDMQKTEVDCWQEGGSFAKRNPLGHWFLNFPDGKAFSANSSYYLYAIPEKEINANPNL
# What was measured:
# Assay in all cases: glycan array binding signal (z-score within array); higher = stronger binding
# Settings in all cases: glycan notation: IUPAC condensed, linker removed
# Gal3S6S(b1-4)GlcNAc = biological target: Gal3S6S(b1-4)GlcNAc
# Method in brief: (§1)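 The binding signal is a Z-score computed within each array and averaged over linkers. Arrays of the same protein sequence at different concentrations or buffers were also averaged together. Data originate from 3228 arrays in the Consortium for Functional Glycomics database, kept only where the protein sequence was available.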
# Gal3S6S(b1-4)GlcNAc6S = biological target: Gal3S6S(b1-4)GlcNAc6S
# Method in brief: as §1
# Gal4S(b1-4)GlcNAc = biological target: Gal4S(b1-4)GlcNAc
# Method in brief: as §1
# Gal4S6S(b1-4)GlcNAc = biological target: Gal4S6S(b1-4)GlcNAc
# Method in brief: as §1
# Gal6P(b1-4)GlcNAc = biological target: Gal6P(b1-4)GlcNAc
# Method in brief: as §1
# Gal6S(b1-3)GlcNAc = biological target: Gal6S(b1-3)GlcNAc
# Method in brief: as §1
# Gal6S(b1-3)GlcNAc6S = biological target: Gal6S(b1-3)GlcNAc6S
# Method in brief: as §1
# Gal6S(b1-4)Glc = biological target: Gal6S(b1-4)Glc
# Method in brief: as §1
# Gal6S(b1-4)Glc6S = biological target: Gal6S(b1-4)Glc6S
# Method in brief: as §1
# Gal6S(b1-4)GlcNAc = biological target: Gal6S(b1-4)GlcNAc
# Method in brief: as §1
# Gal6S(b1-4)GlcNAc6S = biological target: Gal6S(b1-4)GlcNAc6S
# Method in brief: as §1
# GalNAc(a1-3)Gal = biological target: GalNAc(a1-3)Gal
# Method in brief: as §1
# GalNAc(a1-3)GalNAc = biological target: GalNAc(a1-3)GalNAc
# Method in brief: as §1
# [1] = biological target: GalNAc(a1-3)GalNAc(b1-3)Gal(a1-4)Gal(b1-4)Glc
# Method in brief: as §1
# [2] = biological target: GalNAc(a1-3)GalNAc(b1-3)Gal(a1-4)Gal(b1-4)GlcNAc
# Method in brief: as §1
# GalNAc(b1-3)Gal = biological target: GalNAc(b1-3)Gal
# Method in brief: as §1
# [3] = biological target: GalNAc(b1-3)Gal(a1-4)Gal(b1-4)GlcNAc
# Method in brief: as §1
# [4] = biological target: GalNAc(b1-3)Gal(a1-4)Gal(b1-4)GlcNAc(b1-3)Gal(b1-4)Glc
# Method in brief: as §1
# [5] = biological target: GalNAc(b1-3)Gal(a1-6)Gal(b1-4)Glc
# Method in brief: as §1
# GalNAc(b1-3)GalNAc = biological target: GalNAc(b1-3)GalNAc
# Method in brief: as §1
# GalNAc(b1-3)GlcNAc = biological target: GalNAc(b1-3)GlcNAc
# Method in brief: as §1
# GalNAc(b1-4)Gal(b1-4)Glc = biological target: GalNAc(b1-4)Gal(b1-4)Glc
# Method in brief: as §1
# GalNAc(b1-4)GlcNAc = biological target: GalNAc(b1-4)GlcNAc
# Method in brief: as §1
# [6] = biological target: GalNAc(b1-4)GlcNAc(b1-2)Man
# Method in brief: as §1
# [7] = biological target: GalNAc(b1-4)GlcNAc(b1-2)Man(a1-3)[GalNAc(b1-4)GlcNAc(b1-2)Man(a1-6)]Man(b1-4)GlcNAc(b1-4)GlcNAc
# Method in brief: as §1
# [8] = biological target: GalNAc(b1-4)GlcNAc(b1-3)GalNAc(b1-4)GlcNAc
# Method in brief: as §1
# GalNAc(b1-4)GlcNAc6S = biological target: GalNAc(b1-4)GlcNAc6S
# Method in brief: as §1
# GalNAc(b1-6)GalNAc = biological target: GalNAc(b1-6)GalNAc
# Method in brief: as §1
# GalNAc3S(b1-4)GlcNAc = biological target: GalNAc3S(b1-4)GlcNAc
# Method in brief: as §1
# GalNAc3S(b1-4)GlcNAc3S = biological target: GalNAc3S(b1-4)GlcNAc3S
# Method in brief: as §1
# [9] = biological target: GalNAc3S(b1-4)[Fuc(a1-3)]GlcNAc
# Method in brief: as §1
# GalNAc4S6S(b1-4)GlcNAc = biological target: GalNAc4S6S(b1-4)GlcNAc
# Method in brief: as §1
# GalNAc6S(b1-4)GlcNAc = biological target: GalNAc6S(b1-4)GlcNAc
# Method in brief: as §1
# Glc(a1-4)Glc = biological target: Glc(a1-4)Glc
# Method in brief: as §1
# [10] = biological target: Glc(a1-4)Glc(a1-4)Glc(a1-4)Glc
# Method in brief: as §1
# Glc(a1-6)Glc(a1-6)Glc = biological target: Glc(a1-6)Glc(a1-6)Glc
# Method in brief: as §1
# [11] = biological target: Glc(a1-6)Glc(a1-6)Glc(a1-6)Glc
# Method in brief: as §1
# Glc(b1-4)Glc = biological target: Glc(b1-4)Glc
# Method in brief: as §1
binder,measurement,setting,value
B1,glycan array binding signal (z-score),Gal3S6S(b1-4)GlcNAc,-0.108
same,glycan array binding signal (z-score),Gal3S6S(b1-4)GlcNAc6S,0.726
same,glycan array binding signal (z-score),Gal4S(b1-4)GlcNAc,0.544
same,glycan array binding signal (z-score),Gal4S6S(b1-4)GlcNAc,-0.34
same,glycan array binding signal (z-score),Gal6P(b1-4)GlcNAc,-0.64
same,glycan array binding signal (z-score),Gal6S(b1-3)GlcNAc,-0.007
same,glycan array binding signal (z-score),Gal6S(b1-3)GlcNAc6S,0.464
same,glycan array binding signal (z-score),Gal6S(b1-4)Glc,0.199
same,glycan array binding signal (z-score),Gal6S(b1-4)Glc6S,0.194
same,glycan array binding signal (z-score),Gal6S(b1-4)GlcNAc,-0.466
same,glycan array binding signal (z-score),Gal6S(b1-4)GlcNAc6S,-0.082
same,glycan array binding signal (z-score),GalNAc(a1-3)Gal,0.247
same,glycan array binding signal (z-score),GalNAc(a1-3)GalNAc,-0.456
same,glycan array binding signal (z-score),[1],-0.292
same,glycan array binding signal (z-score),[2],-0.39
same,glycan array binding signal (z-score),GalNAc(b1-3)Gal,0.127
same,glycan array binding signal (z-score),[3],4.2
same,glycan array binding signal (z-score),[4],-0.645
same,glycan array binding signal (z-score),[5],0.556
same,glycan array binding signal (z-score),GalNAc(b1-3)GalNAc,-0.542
same,glycan array binding signal (z-score),GalNAc(b1-3)GlcNAc,0.281
same,glycan array binding signal (z-score),GalNAc(b1-4)Gal(b1-4)Glc,0.188
same,glycan array binding signal (z-score),GalNAc(b1-4)GlcNAc,0.378
same,glycan array binding signal (z-score),[6],-0.169
same,glycan array binding signal (z-score),[7],0.687
same,glycan array binding signal (z-score),[8],0.074
same,glycan array binding signal (z-score),GalNAc(b1-4)GlcNAc6S,0.113
same,glycan array binding signal (z-score),GalNAc(b1-6)GalNAc,-0.073
same,glycan array binding signal (z-score),GalNAc3S(b1-4)GlcNAc,-0.581
same,glycan array binding signal (z-score),GalNAc3S(b1-4)GlcNAc3S,-0.565
same,glycan array binding signal (z-score),[9],-0.48
same,glycan array binding signal (z-score),GalNAc4S6S(b1-4)GlcNAc,-0.307
same,glycan array binding signal (z-score),GalNAc6S(b1-4)GlcNAc,0.147
same,glycan array binding signal (z-score),Glc(a1-4)Glc,-0.602
same,glycan array binding signal (z-score),[10],-0.027
same,glycan array binding signal (z-score),Glc(a1-6)Glc(a1-6)Glc,-0.571
same,glycan array binding signal (z-score),[11],0.585
same,glycan array binding signal (z-score),Glc(b1-4)Glc,-0.211
